# The supplement of paper PMC8728848
# This is one part of the list.
# B1: Na-CTL-1 (Necator americanus) (protein)
# chain: MQRSFLLLLVVLAGAWAVNTTIPLKLMGGFTPMKYQCVGRVSDIWADVLFLIESSDMITKSGFRQVIAFITATTKKMTIGQDEKQTRVGFITYGEEAKLIYDLDHWRSTEKLSDLVQKIPYVKSSGTNIAAAIALANKVFNSPTHRPNVPKVMVIVANGLKKGSQNPIPVATAFKDFGGIIITIEYTQYDNIQVPILKKIASEGYNIRSNDEDFSVRTLTNMLLQANCFCPDHYVPFRVNNPEFGCFVTAKIPSMWRDAAEMCRAVEEGKLVKVENEEKAAFIMKLVGPKKEAWIGLRYYGNKFQWTDGTKLNADDFNLWPEDIKELNGPHCVSMYQDQKDKKYYWRAGKCLEDMRYVCEVQPCSASNYCSEPVFMYRQKHRALLPAPPPPPN
# What was measured:
# Test in all cases: glycan array binding signal (z-score within array); higher = stronger binding
# Details in all cases: glycan notation: IUPAC condensed, linker removed
# [1] = target: GlcNAc(b1-3)Man
# In short: (§1)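 Glycan array data were curated from 3228 arrays in the Consortium for Functional Glycomics database and kept only where the protein sequence was available. Glycan names were converted to IUPAC-condensed notation, and columns mapping to the same glycan were averaged. The binding signal is a within-array Z-score, averaged across arrays of the same protein sequence at different concentrations or buffers and across linkers. Negative Z-scores can be read as non-binding.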
# [2] = target: GlcNAc(b1-3)[GlcNAc(b1-4)][GlcNAc(b1-6)]GlcNAc
# In short: as §1
# [3] = target: GlcNAc(b1-3)[GlcNAc(b1-6)]Gal(b1-4)GlcNAc
# In short: as §1
# [4] = target: GlcNAc(b1-3)[GlcNAc(b1-6)]GalNAc
# In short: as §1
# [5] = target: GlcNAc(b1-4)Gal(b1-4)GlcNAc
# In short: as §1
# [6] = target: GlcNAc(b1-4)GlcNAc
# In short: as §1
# [7] = target: GlcNAc(b1-4)GlcNAc(b1-4)GlcNAc
# In short: as §1
# [8] = target: GlcNAc(b1-4)GlcNAc(b1-4)GlcNAc(b1-4)GlcNAc(b1-4)GlcNAc
# In short: as §1
# [9] = target: GlcNAc(b1-4)GlcNAc(b1-4)GlcNAc(b1-4)GlcNAc(b1-4)GlcNAc(b1-4)GlcNAc
# In short: as §1
# [10] = target: GlcNAc(b1-4)[GlcNAc(b1-6)]GalNAc
# In short: as §1
# [11] = target: GlcNAc(b1-6)Gal(b1-4)GlcNAc
# In short: as §1
# [12] = target: GlcNAc(b1-6)GalNAc
# In short: as §1
# [13] = target: GlcNAc6S(b1-3)Gal(b1-4)GlcNAc
# In short: as §1
# [14] = target: Kdn(a2-3)Gal(b1-3)GalNAc
# In short: as §1
# [15] = target: Kdn(a2-3)Gal(b1-3)GlcNAc
# In short: as §1
# [16] = target: Kdn(a2-3)Gal(b1-4)Glc
# In short: as §1
# [17] = target: Kdn(a2-3)Gal(b1-4)GlcNAc
# In short: as §1
# [18] = target: Kdn(a2-3)Gal(b1-4)[Fuc(a1-3)]GlcNAc
# In short: as §1
# [19] = target: Kdn(a2-6)Gal(b1-4)GlcNAc
# In short: as §1
# [20] = target: Man(a1-2)Man(a1-2)Man(a1-3)Man
# In short: as §1
# [21] = target: Man(a1-2)Man(a1-2)Man(a1-6)[Man(a1-3)]Man
# In short: as §1
# [22] = target: Man(a1-2)Man(a1-3)Man
# In short: as §1
# [23] = target: Man(a1-2)Man(a1-3)[Man(a1-2)Man(a1-6)]Man
# In short: as §1
# [24] = target: Man(a1-2)Man(a1-3)[Man(a1-2)Man(a1-6)]Man(a1-6)[Man(a1-2)Man(a1-2)Man(a1-3)]Man
# In short: as §1
# [25] = target: Man(a1-2)Man(a1-3)[Man(a1-2)Man(a1-6)]Man(a1-6)[Man(a1-2)Man(a1-2)Man(a1-3)]Man(b1-4)GlcNAc(b1-4)GlcNAc
# In short: as §1
# [26] = target: Man(a1-2)Man(a1-3)[Man(a1-6)]Man(a1-6)[Man(a1-2)Man(a1-3)]Man(b1-4)GlcNAc(b1-4)GlcNAc
# In short: as §1
# [27] = target: Man(a1-2)Man(a1-6)[Man(a1-3)]Man(a1-6)[Man(a1-2)Man(a1-2)Man(a1-3)]Man
# In short: as §1
# [28] = target: Man(a1-2)Man(a1-6)[Man(a1-3)]Man(a1-6)[Man(a1-2)Man(a1-2)Man(a1-3)]Man(b1-4)GlcNAc(b1-4)GlcNAc
# In short: as §1
# [29] = target: Man(a1-3)[Man(a1-6)]Man
# In short: as §1
# [30] = target: Man(a1-3)[Man(a1-6)]Man(a1-6)[Man(a1-2)Man(a1-3)]Man(b1-4)GlcNAc(b1-4)GlcNAc
# In short: as §1
# [31] = target: Man(a1-3)[Man(a1-6)]Man(a1-6)[Man(a1-3)]Man
# In short: as §1
# [32] = target: Man(a1-3)[Man(a1-6)]Man(a1-6)[Man(a1-3)]Man(b1-4)GlcNAc(b1-4)GlcNAc
# In short: as §1
# [33] = target: Man(a1-3)[Man(a1-6)]Man(b1-4)GlcNAc(b1-4)GlcNAc
# In short: as §1
# [34] = target: Man(a1-3)[Man(a1-6)]Man(b1-4)GlcNAc(b1-4)[Fuc(a1-6)]GlcNAc
# In short: as §1
# [35] = target: Man(a1-6)Man
# In short: as §1
# [36] = target: Man(b1-4)GlcNAc
# In short: as §1
# [37] = target: MurNAc(b1-4)GlcNAc
# In short: as §1
# [38] = target: Neu5Ac(a2-3)Gal
# In short: as §1
binder,measurement,setting,value
B1,glycan array binding signal (z-score),[1],-0.488
same,glycan array binding signal (z-score),[2],-0.198
same,glycan array binding signal (z-score),[3],-0.476
same,glycan array binding signal (z-score),[4],-0.058
same,glycan array binding signal (z-score),[5],0.103
same,glycan array binding signal (z-score),[6],-0.188
same,glycan array binding signal (z-score),[7],-0.5
same,glycan array binding signal (z-score),[8],-0.442
same,glycan array binding signal (z-score),[9],0.934
same,glycan array binding signal (z-score),[10],-0.551
same,glycan array binding signal (z-score),[11],-0.301
same,glycan array binding signal (z-score),[12],-0.055
same,glycan array binding signal (z-score),[13],-0.311
same,glycan array binding signal (z-score),[14],-0.14
same,glycan array binding signal (z-score),[15],-0.552
same,glycan array binding signal (z-score),[16],-0.356
same,glycan array binding signal (z-score),[17],-0.056
same,glycan array binding signal (z-score),[18],-0.546
same,glycan array binding signal (z-score),[19],-0.482
same,glycan array binding signal (z-score),[20],0.039
same,glycan array binding signal (z-score),[21],-0.514
same,glycan array binding signal (z-score),[22],-0.24
same,glycan array binding signal (z-score),[23],-0.291
same,glycan array binding signal (z-score),[24],0.15
same,glycan array binding signal (z-score),[25],-0.121
same,glycan array binding signal (z-score),[26],0.06
same,glycan array binding signal (z-score),[27],-0.056
same,glycan array binding signal (z-score),[28],-0.4
same,glycan array binding signal (z-score),[29],0.016
same,glycan array binding signal (z-score),[30],-0.365
same,glycan array binding signal (z-score),[31],-0.192
same,glycan array binding signal (z-score),[32],-0.22
same,glycan array binding signal (z-score),[33],-0.552
same,glycan array binding signal (z-score),[34],-0.097
same,glycan array binding signal (z-score),[35],-0.528
same,glycan array binding signal (z-score),[36],0.099
same,glycan array binding signal (z-score),[37],-0.718
same,glycan array binding signal (z-score),[38],-0.133
